Consider three compounds from US20230172915A1, “DHODH INHIBITOR FOR THE TREATMENT OF COVID-19” (priority 2020, published 2023).

Data set [1] has as its system IL-2/ CD3 and CD28 antibody stimulated PBMCs. To be noted: for production of IL-17A / production of IL-17F: stimulated PBMC.
The nature of data set [2]: Safety pharmacology studies, ECG and blood pressure in 7- and 28-day dog toxicity studies. As to conditions: 7- and 28-day toxicity studies in dogs.

Consider `COc1ccc([C@H]2c3[nH]c4ccc(Cl)cc4c3CCN2C(=O)Oc2ccc(Cl)cc2)cc1` [PTC299, 4-chlorophenyl (S)-6-chloro-1-(4-methoxyphenyl)-1,3,4,9-tetrahydro-2H-pyrido[3,4-b]indole-2-carboxylate], for which the “levels of multiple cytokines” value in data set [1] (48 hours of incubation, multiplex assay kit) was “decreased”. In data set [1], the “production of IL-17A” value is given as “inhibited” and the “production of IL-17F” value is “inhibited”. The “adverse effects on the central nervous, cardiovascular, and respiratory systems” value in data set [2] is recorded as “unlikely to cause serious adverse effects”.
Regarding `COc1ccc(C2c3[nH]c4ccc(Cl)cc4c3CCN2C(=O)Oc2ccc(Cl)cc2)cc1` (centres unmarked) [PTC-371], in data set [1], the “production of IL-17A” value is recorded as “did not” and the “production of IL-17F” value is on record as “did not”.
As for `Cc1c(-c2ccc(-c3ccccc3F)cc2)nc2ccc(F)cc2c1C(=O)O` [brequinar], in data set [1], the “production of IL-17A” value was “inhibited” and the “production of IL-17F” value was “inhibited”.
